SMILES strings stand for the structures. Screen size: about 310,000 compounds; about 2,200 (0.71%) showed an effect of 50% or more. Effects have a minus sign here. Some of the results follow.

For the assay, the target named is human ether-à-go-go-related gene (hERG) potassium channel (human, UniProt Q12809). Kind of assay: primary screen, population patch clamp on CHO cells stably expressing hERG.
Chain of human ether-à-go-go-related gene (hERG) potassium channel (Q12809 whole entry, looked up): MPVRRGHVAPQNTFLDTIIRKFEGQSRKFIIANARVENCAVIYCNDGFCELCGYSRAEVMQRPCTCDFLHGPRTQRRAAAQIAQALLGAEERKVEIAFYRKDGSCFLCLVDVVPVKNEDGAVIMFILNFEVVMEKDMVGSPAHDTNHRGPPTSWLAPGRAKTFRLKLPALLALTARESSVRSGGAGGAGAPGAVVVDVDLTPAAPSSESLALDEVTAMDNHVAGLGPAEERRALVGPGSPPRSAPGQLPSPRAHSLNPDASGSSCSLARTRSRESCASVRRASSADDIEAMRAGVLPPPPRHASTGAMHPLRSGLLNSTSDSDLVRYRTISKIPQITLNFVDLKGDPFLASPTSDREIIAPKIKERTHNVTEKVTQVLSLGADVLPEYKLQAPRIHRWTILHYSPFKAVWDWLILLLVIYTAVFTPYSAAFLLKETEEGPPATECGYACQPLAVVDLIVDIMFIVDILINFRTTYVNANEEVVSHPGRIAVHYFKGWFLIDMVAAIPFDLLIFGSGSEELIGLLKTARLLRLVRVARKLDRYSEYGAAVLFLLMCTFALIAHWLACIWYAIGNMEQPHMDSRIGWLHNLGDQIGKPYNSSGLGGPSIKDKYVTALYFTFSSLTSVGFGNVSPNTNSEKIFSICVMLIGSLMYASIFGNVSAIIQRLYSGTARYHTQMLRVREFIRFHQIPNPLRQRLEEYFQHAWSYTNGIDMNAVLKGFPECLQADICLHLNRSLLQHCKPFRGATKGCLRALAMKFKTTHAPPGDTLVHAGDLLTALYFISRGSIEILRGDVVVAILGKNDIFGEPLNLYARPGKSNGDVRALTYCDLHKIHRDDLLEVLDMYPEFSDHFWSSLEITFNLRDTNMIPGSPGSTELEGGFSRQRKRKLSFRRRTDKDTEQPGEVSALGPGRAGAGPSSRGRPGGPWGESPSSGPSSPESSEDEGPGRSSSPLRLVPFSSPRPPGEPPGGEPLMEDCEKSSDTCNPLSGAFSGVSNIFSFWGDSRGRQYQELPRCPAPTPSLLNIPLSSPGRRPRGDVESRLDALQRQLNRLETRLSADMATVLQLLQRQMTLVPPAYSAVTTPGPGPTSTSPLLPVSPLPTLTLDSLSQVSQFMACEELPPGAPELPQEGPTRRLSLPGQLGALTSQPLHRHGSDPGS
Consider `COc1ccccc1NS(=O)(=O)c1c(C)nc2sccn2c1=O`, for which the “hERG current change (%, negative = inhibition) at 1uM” value is -8.37%. The result for `Cc1ccc(N(C(=O)Cc2cccs2)C(C(=O)NC2CCCCC2)c2ccccn2)cc1C` (stereo not shown) reads 9.66%; that for `CC(Oc1ccc(Cl)cc1Cl)C(=O)NC(=S)N1CCc2ccccc21` (stereo not shown), 8.03%. As for `CC(C)(C)NC(=O)NC(=O)COc1ccccc1C#N`, the figure is 16.5%; as for `Cc1nc2ccccn2c1C(=O)N/N=C/c1ccc2c(c1)OCO2`, 9.96%; as for `NNC(=O)c1nc[nH]c1C(=O)Nc1ccccn1`, 3.38%. As for `O=C(O)C1CCN(C(=O)COc2ccc3c(c2)oc(=O)c2ccccc23)CC1`, the figure is 13.9%. Regarding `COC(=O)c1[nH]c2ccccc2c1NC(=O)Oc1ccccc1`, the “hERG current change (%, negative = inhibition) at 1uM” value is 8.27%. The result for `Clc1nnc2ccc(-c3ccccc3)nn12` reads 12.4%. As for `COc1cccc(CNC(=O)CCl)c1`, the figure is 4.39%; as for `CCC(C)NC(=O)Nc1ccc(C)cc1C` (stereo not shown), 20.1%; as for `CCN(Cc1nc2cc(Cl)ccc2c(=O)[nH]1)C(=O)C1CC(=O)N(c2cccc3ccccc23)C1` (stereo not shown), 1.29%. As for `COc1ccc(CC(=O)Nc2ccc(-c3ccc4nnc(C)n4n3)cc2)cc1OC`, the figure is 12.3%; as for `COC(=O)c1c(NC(=O)c2ccccc2F)sc(C(=O)N2CCOCC2)c1C`, 2.83%. As for `CCCC(=O)Nc1ccc2oc(-c3cccnc3)nc2c1`, the “hERG current change (%, negative = inhibition) at 1uM” value is on record as 1.43%.

With `COCC(C)N=C1NN=C(c2cccs2)C(CC(=O)O)S1` (stereo not shown), the “hERG current change (%, negative = inhibition) at 1uM” value amounted to 15.3%. As for `C=CCN(C(=O)C1CSC2(C)CCC(=O)N12)c1nc(-c2ccccc2)cs1` (stereo not shown), the “hERG current change (%, negative = inhibition) at 1uM” value worked out at 6.92%.

Consider `O=C1c2cccc([N+](=O)[O-])c2C(=O)N1c1ccccc1`, for which the “hERG current change (%, negative = inhibition) at 1uM” value turned out to be 2.96%. As to `COc1ccc(CN2CCC(CO)(CCOc3ccccc3)CC2)cc1C`, the “hERG current change (%, negative = inhibition) at 1uM” value is on record as -77.6%. The result for `CSc1ccccc1NC(=O)CN(C)C(=O)C1CC(=O)N(C(C)c2ccccc2)C1` (stereo not shown) reads 13.1%; that for `COc1cccc(N2CCN(S(=O)(=O)c3ccc4c(c3)NC(=O)CS4)CC2)c1`, 20.6%; that for `COc1ccc(-c2nc(C#N)c(NCc3cccnc3)o2)cc1OC`, 9.8%. As for `COc1ccc(C)cc1S(=O)(=O)Nc1ccc(-n2c(C)nc3ccccc3c2=O)cc1`, the figure is -7.5%; as for `CCOc1ccccc1CNC(=O)c1ccc2nc(N3CCOCC3)sc2c1`, 8.5%; as for `Cc1nc2c(o1)CCc1ccccc1C2O` (stereo not shown), 11.1%. Consider `Cc1cccc(C)c1NC(=S)N(Cc1ccco1)C1CCN(C(C)C)CC1`, for which the “hERG current change (%, negative = inhibition) at 1uM” value worked out at 11.8%.

`Clc1cccc(OCCOCCN2CCNCC2)c1Cl.O=C(O)C(=O)O`: the “hERG current change (%, negative = inhibition) at 1uM” value is recorded as 5.14%. Turning to `CCCNC(=O)Nc1ccc2c(c1)nc(C)n2C`, the “hERG current change (%, negative = inhibition) at 1uM” value was determined as 4.83%. As for `O=C(CSc1ccc(-c2cccs2)nn1)N1CCCCCC1`, the figure is 5.76%; as for `CC(=O)Oc1cc2c(C(=O)NCCCN3CCOCC3)c(C)oc2c2ccccc12`, 0.557%; as for `CCC(C)N1C(=O)/C(=C/c2c(NCCCOC(C)C)nc3c(C)cccn3c2=O)SC1=S` (stereo not shown), 2.13%. Regarding `Cc1csc(SCc2ccc(C(=O)O)cc2)n1`, the “hERG current change (%, negative = inhibition) at 1uM” value is on record as -3.47%.

In the case of `COc1ccc2c(c1)CC/C(=C\Nc1ccc3c(c1)OCO3)C2=O`, the “hERG current change (%, negative = inhibition) at 1uM” value is 6.86%.

Take `CN(C)S(=O)(=O)c1ccc(N2CCCC2)c(C(=O)NNC(=O)c2ccccc2)c1`: the “hERG current change (%, negative = inhibition) at 1uM” value was 2.3%. The result for `CC(C)Oc1ccc(C(=O)Nc2c3c(nn2-c2ccccc2)CS(=O)(=O)C3)cc1` reads -4.11%; that for `O=S(=O)(NC1CCCC1)c1ccccc1Br`, 9.04%; that for `O=S(=O)(c1ccccc1Oc1ccc(Cl)cc1Cl)N1CCCCC1`, 14.2%. The result for `CC(C)=CCN1CCN(CCCc2ccccc2)CC1CCO` (stereo not shown) reads 7.79%. Consider `COc1cc(C2CC(=O)N(CC(=O)NCC3CCCO3)c3ccccc3S2)cc(OC)c1OC` (stereo not shown), for which the “hERG current change (%, negative = inhibition) at 1uM” value is given as 11.4%. Consider `Cc1ccsc1CNCC(O)c1ccccc1.Cl` (stereo not shown), for which the “hERG current change (%, negative = inhibition) at 1uM” value worked out at 17.6%.

For the compound `CCOC(=O)N1CCN(C(=O)C(NS(=O)(=O)c2cccc3nsnc23)c2ccccc2)CC1` (stereo not shown), the “hERG current change (%, negative = inhibition) at 1uM” value was found to be 5.04%.

`CCOC(=O)C1(C)C=C(Nc2ccc(NC(C)=O)cc2)C(=O)N1c1ccc(NC(C)=O)cc1` (stereo not shown): the “hERG current change (%, negative = inhibition) at 1uM” value came to 14.3%.

For the compound `CC(C)CC(=O)Nc1nnc(SCC(=O)NC2CCCCC2)s1`, the “hERG current change (%, negative = inhibition) at 1uM” value came to 18.1%. For the compound `COc1ccc2c(c1)CCc1c(C(=O)N3CCOCC3)noc1-2`, the “hERG current change (%, negative = inhibition) at 1uM” value is recorded as -7.1%. `O=C(CCCCn1c(=O)[nH]c2ccccc2c1=O)N1CCN(c2ncccn2)CC1`: the “hERG current change (%, negative = inhibition) at 1uM” value is 9.76%. In the case of `O=C(CCCn1c(=S)[nH]c2ccsc2c1=O)Nc1ccc2c(c1)OCO2`, the “hERG current change (%, negative = inhibition) at 1uM” value worked out at 12.7%.

The values above are taken from paper PMC4336329 (PLoS ONE, 2015).
